This is one part of the list.
B1: chr7:129668796:129668797:-_ENSG00000091732_ENST00000358303|hu_mus|FALSE|FALSE (ssRNA)
RNA: GGGAGUUCUACAGUCCGACGAUCAGAAGGAAGUUGGAGGUCCAAAUGGCAAAGGCUUUGAAACCGGUCCAGGAACUCACUGAUGAGAACAGCAGGCUCACCCAAUGGCAACAUCCCAAAUCUAUCUGGAGAGGGGCUGUCUGGCAACAGAGGAUUGAGCAUCA
B2: chr5:44151052:44151053:-_ENSMUSG00000039753_ENSMUST00000047857|mus_mus|FALSE|FALSE (ssRNA)
RNA: GGGAGUUCUACAGUCCGACGAUCGUCGGUCUGGGUAAGAUCCAGAUGUUCCAGGUUAGGACAAAGCUCUAAAAUCUGCCUAACCAUUUUGCUGGAGACUGCAGAGCUGUACGCUAACACUAAAGUUUUUACAGAGGUACCAACCAACAGAGGAUUGAGCAUCA
B3: chr1:244855233:244855234:+_ENSG00000121644_ENST00000302550|hu_hu|FALSE|FALSE (ssRNA)
RNA: GGGAGUUCUACAGUCCGACGAUCCAUUAAAUGAUAAGCAUUGCCUUUGUAUUCUUUUCCCAGUUCUUCUACAAUUUUUUCUAUAUCAUCUUCUAGGAAGUCCGUGCUCCCUAAAACAACAGCUUCUUUAAAUUUAAAUGUUUCCAACAGAGGAUUGAGCAUCA
B4: 84647941_84648061_2016_CDS_ENSMUSG00000020530_ENSMUST00000108081|mouse|control|control (ssRNA)
RNA: GGGAGUUCUACAGUCCGACGAUCCAAUGGCUGCCCACCCUUCUCAGUGCUGCAACAACUCUCAGGAUGUGCAUCUUUGGUCUUGUCACGGUGAAACACUGUGUGCAUAGUGUUUCCUGAGGUCUCUCGAUUACCUGGAUCUGUCAACAGAGGAUUGAGCAUCA
B5: chr18:24050344:24050345:+_ENSMUSG00000024277_ENSMUST00000025127|mus_hu|FALSE|FALSE (ssRNA)
RNA: GGGAGUUCUACAGUCCGACGAUCUGGAGCUCAGGGCUGCACACCUGAAGUUACCCUUUAGUAGGGGUCCCCUAGAGUGAAUGACAGUUUUGUGGCUGAAACCUACACAAAGAGGAAGAGGAAUGAGGCAGGAAGACCCGUACCCAACAGAGGAUUGAGCAUCA
B6: chr14:102550858:102550859:-_ENSG00000080824_ENST00000216281|hu_mus|FALSE|FALSE (ssRNA)
RNA: GGGAGUUCUACAGUCCGACGAUCGUUGUUCUUUUUCUUUCUGUUUUCAAACAGAUCAAAAGGAGCGCGUCUUGGGACAAAAAGAAGGGCCCGGAAUUCUAAUUGUCCUUCAACAGAAAAAUGCUUUACUGCCAAGUGUUCUUCCAACAGAGGAUUGAGCAUCA
B7: chrX:12734859:12734860:+_ENSMUSG00000031010_ENSMUST00000089302|mus_mus|FALSE|FALSE (ssRNA)
RNA: GGGAGUUCUACAGUCCGACGAUCAUCACUGGCAGAUCCUCGGACUAUUUUCUUUGUGUGAAAUCCUGUAGUAAAAAGGAACCUAGCAGCAAGCUGAAUACUAAUCAUAGUGAUUUCUUCUGCUUCAGGAGACAGGUGAUCUUGCAACAGAGGAUUGAGCAUCA
B8: chr5:179004091:179004092:+_ENSG00000176783_ENST00000393438|hu_hu|FALSE|FALSE (ssRNA)
RNA: GGGAGUUCUACAGUCCGACGAUCUUCAUGCUCCUUGCCACCAUCAAGAUCCUGCACAUCCUUAAGGUAGAGGGAAAAAUCUAUUACUCCAACCUGAGAAUCCAAGUCUUCUCCUUUCAAGCAGAGAUUGGCAUCGAGAACAUUCAACAGAGGAUUGAGCAUCA
B9: chr2:216981417:216981418:+_ENSG00000079246_ENST00000392132|hu_hu|hu_hu_hu_mus_True|28_58 (ssRNA)
RNA: GGGAGUUCUACAGUCCGACGAUCCUGAUACUGGUCCUUGCCAGCAAGGGCAUUAUCAGUGCCAUCUGUGCCAUAGAGGACUAAAGCAAUCUCAUCUUUGCUCUCCGCAAACACCUGUCGUUGGACAAACAUAGUCAUCACUUUCAACAGAGGAUUGAGCAUCA
B10: chr10:1038518:1038519:+_ENSG00000107937_ENST00000545048|hu_hu|hu_hu_hu_mus_False|1_28 (ssRNA)
RNA: GGGAGUUCUACAGUCCGACGAUCCAGUCUGUCAUGGUAAUUCUGUUGAGUAAAUUUGACUUUUCUCAUAUAAAAAUGUCGAAUCCGAUGAAUUUGAUAAUGUUUAUGAAUAACGGUUGGAGUCUUUCGUUGAGUCUUCGACAACAACAGAGGAUUGAGCAUCA
B11: chr1:54531653:54531654:-_ENSMUSG00000073678_ENSMUST00000097739|mus_hu|motif|central (ssRNA)
RNA: GGGAGUUCUACAGUCCGACGAUCACACAAAAGAUGAACUCAUUUCAAAGAACAAUGUAAACUGAACUUAGGCCUUGUACACGGUCUUUUUACUAAUAACACCUAUGGUCCCCAUUAGAAUAAACUGUCACUAAAUCAAGGCCACAACAGAGGAUUGAGCAUCA
B12: chrX:71549762:71549763:+_ENSMUSG00000019087_ENSMUST00000019231|mus_mus|mus_mus_mus_hu_False|88_108 (ssRNA)
RNA: GGGAGUUCUACAGUCCGACGAUCAAAGUGUACCACUUCUUAUUGUUACAUCACCCCCACCAGAAAACGAUAACGACAGCCAAGCAGGACAGACAGUUAAGUAGUACUUCCACACUCCCAAACUCAGGGAGCCCUAUAACCUUACAACAGAGGAUUGAGCAUCA
B13: chr16:75327710:75327711:-_ENSG00000153774_ENST00000283882|hu_mus|FALSE|FALSE (ssRNA)
RNA: GGGAGUUCUACAGUCCGACGAUCUUUAAAAGACAAAUUUUAAAAAGGAAAAUGAAUGAAGCCAGGUGAAAUUAACAUACAUUAAACAAACUGCAACGUAGAAAAAGGGACUUGCUGGAAACAUGAUGAGGAACACUGGAAGUACAACAGAGGAUUGAGCAUCA
B14: 36892310_36892430_2491_3pUTR_ENSG00000198663_ENST00000480824|human|control|control (ssRNA)
RNA: GGGAGUUCUACAGUCCGACGAUCAUAAAAGGAACAGGAAAAGAACAUCCUUAUUUACACCAUUUGAUUGCUACCUACUAAAAGCACUUAGGAGAAAACAAUGCACAUAGUGAAUCAUCCAAUCAGAAACACACAGCUUUAUAUCAACAGAGGAUUGAGCAUCA
B15: chr7:44244176:44244177:+_ENSG00000106636_ENST00000223369|hu_mus|hu_hu_hu_mus_False|18_78 (ssRNA)
RNA: GGGAGUUCUACAGUCCGACGAUCACUGUCGCUCCGGACGUAGACAUGGCAAAGAUAGUCUUGUUCUUUGACAGAAGCUCUGCUGCCUUUCCCCGAGCGUUCCACAAUCAGUUGACUCGUGAAGGUCAUGAAUUCCUGCACACUCAACAGAGGAUUGAGCAUCA
B16: chr16:29649037:29649038:+_ENSMUSG00000038084_ENSMUST00000160597|mus_hu|motif|central (ssRNA)
RNA: GGGAGUUCUACAGUCCGACGAUCUUUAAUUUAUUUCUCCUGAUGAAGAGCUUCAAUGAAAGCAUCAAGUUUUUCUUGAAUUUCUCGGACUUUCUUGAGGUCUUCCGCCAGUUGAACGCGUUUACCAGUAAGCAAUUUAAUCUUCAACAGAGGAUUGAGCAUCA
B17: chr3:196311055:196311056:+_ENSG00000174013_ENST00000440469|hu_mus|FALSE|FALSE (ssRNA)
RNA: GGGAGUUCUACAGUCCGACGAUCGGCUUUUGGAAGUCCUCGAAAGGCAACCCCCAGGAACUCAUACCCACGCUCAAAAGCUAAAGUCUUAUCCUCCAUGUCCAGGAUGACUCGGAUUCUCUCUCCUAUCUGAUACUUUGGUGCCAACAGAGGAUUGAGCAUCA
B18: chr5:37680062:37680063:+_ENSMUSG00000029121_ENSMUST00000031004|mus_hu|mus_mus_mus_hu_False|1_1 (ssRNA)
RNA: GGGAGUUCUACAGUCCGACGAUCUUUGGGUGUAGCUGGUACCUCGUACACAGGACCGUCAUACAUGCCCCUGGAAACCCCUUGCAAUCCAAAAACCUUAUUCCUGAUUUUGACGCGCUGGUACAGGUGCUCCGGGAAUGGCUUCAACAGAGGAUUGAGCAUCA
B19: chr7:150915252:150915253:-_ENSG00000033050_ENST00000287844|hu_hu|FALSE|FALSE (ssRNA)
RNA: GGGAGUUCUACAGUCCGACGAUCCUUCCCUGCUCCAUUGGGCCCUACCAGAGCCACUCGUGUGUCAAGGUCAAUUCCAAAUUCUAGAUUAUUGUAGAUGCAAGGCCCAUCUUUUGUAUACUUGAAGCUCACAUUUUGCACCAUCAACAGAGGAUUGAGCAUCA
B20: chr14:102036314:102036315:-_ENSMUSG00000075486_ENSMUST00000100339|mus_mus|motif|central (ssRNA)
RNA: GGGAGUUCUACAGUCCGACGAUCCUUGAGAGAUCUGCAGCUGUCAGAGCUCACAGCCAUGCCCAGUUUCCACUGAAAAUCGGUAAGCUGGCCCGUGACCUCCGACUUGGCAUCCAGCACGGGCUCCCUGAACCCAGACUCCUCCAACAGAGGAUUGAGCAUCA
B21: chr1:182620099:182620100:+_ENSMUSG00000058729_ENSMUST00000085803|mus_mus|FALSE|FALSE (ssRNA)
RNA: GGGAGUUCUACAGUCCGACGAUCAACAACAAAGCUUUUAUAAAUUAUGAUAAAUUAAAAUAUUUAUUAUUAUAAUUGAUCUAUAGAACCAUGUCCCACUGUCAGUAUAUGAAACAUACACUUAAGUCCGUGUUUCCCAUCUGUCAACAGAGGAUUGAGCAUCA
B22: chr7:54825262:54825263:-_ENSG00000132432_ENST00000352861|hu_hu|hu_hu_hu_mus_False|1_68 (ssRNA)
RNA: GGGAGUUCUACAGUCCGACGAUCCUGCCGGCUGGGCUCCACAAACUGCAUUACCUGAUCCAUGUUUUACCCAACCGGGAUUGAGAGCGUAGAGACACGUAGCUCAGGAGAGAACCGAGCCCAACGGAACCGGAAGCGGAAUCCCAACAGAGGAUUGAGCAUCA

target: T1, UNK ZnF1-3 (human, UniProt Q9C0B0 31-174); assay: nsRBNS (natural sequence RNA bind-n-seq); RBNS binding buffer (assumed for nsRBNS): 25 mM Tris pH 7.5, 150 mM KCl, 3 mM MgCl2, 0.01% Triton X-100, 500 ug/ml BSA, 20 U/ml SUPERase-In, 4 C; UNK is unkempt and MSI1 is Musashi-1; names of the RNAs are library labels; protein concentration not given here; high values mean tight binding
T1 sequence: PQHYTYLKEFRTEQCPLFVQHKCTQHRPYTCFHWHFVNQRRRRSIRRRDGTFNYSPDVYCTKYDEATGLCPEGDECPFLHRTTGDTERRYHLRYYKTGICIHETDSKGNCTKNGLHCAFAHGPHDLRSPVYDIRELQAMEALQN

Binder | binding signal
B1 | 1.25 enrichment R
B2 | 1.13 enrichment R
B3 | 0.838 enrichment R
B4 | 0.842 enrichment R
B5 | 2.03 enrichment R
B6 | 1.19 enrichment R
B7 | 1.28 enrichment R
B8 | 1.93 enrichment R
B9 | 0.775 enrichment R
B10 | 0.798 enrichment R
B11 | 1.05 enrichment R
B12 | 1.79 enrichment R
B13 | 2.74 enrichment R
B14 | 1.05 enrichment R
B15 | 0.716 enrichment R
B16 | 0.671 enrichment R
B17 | 0.98 enrichment R
B18 | 0.731 enrichment R
B19 | 1.07 enrichment R
B20 | 0.489 enrichment R
B21 | 0.913 enrichment R
B22 | 0.504 enrichment R

— PMC12136788
